# Values quoted from earlier work in PMC11006913.
# Some of the results follow.
# Legend:
# Conditions in all cases: PBM; conditions not shown; double strand, one strand shown; scale: upbm affinity estimate (log intensity, higher = more binding, comparable within an allelic series)
# [1] = target: PITX2 L100Q (Homo sapiens) (UniProt Q99697)
# [2] = target: PITX2 R108H (Homo sapiens) (UniProt Q99697)
# [3] = target: PITX2 R130W (Homo sapiens) (UniProt Q99697)
# [4] = target: PITX2 T114P (Homo sapiens) (UniProt Q99697)
# [5] = target: NKX2-5 K183E (Homo sapiens) (UniProt P52952)
# [6] = target: NKX2-5 R161P (Homo sapiens) (UniProt P52952)
# [7] = target: NKX2-5 R190C (Homo sapiens) (UniProt P52952)
sequence,measurement,setting,value
AATTAATC [8-mer AATTAATC],binding signal,[1],11.3
same,binding signal,[2],9.6
same,binding signal,[3],8.72
same,binding signal,[4],9.91
ACCAATTA [8-mer ACCAATTA],binding signal,[5],11.5
CAATTAGC [8-mer CAATTAGC],binding signal,[2],8.6
same,binding signal,[3],8.59
same,binding signal,[4],8.67
GTAATTAC [8-mer GTAATTAC],binding signal,[5],11.5
same,binding signal,[6],12.1
same,binding signal,[7],11.4
ATAATTGG [8-mer ATAATTGG],binding signal,[5],11.4
ATTAATCA [8-mer ATTAATCA],binding signal,[1],10.8
same,binding signal,[2],9.27
same,binding signal,[3],8.79
same,binding signal,[4],9.46
CGACCTCG [8-mer CGACCTCG],binding signal,[5],10.2
same,binding signal,[6],10.3
same,binding signal,[7],10.2
GCTCGGCC [8-mer GCTCGGCC],binding signal,[1],8.11
same,binding signal,[2],7.92
same,binding signal,[3],7.85
same,binding signal,[4],7.95
CCGCGTCG [8-mer CCGCGTCG],binding signal,[1],8.18
same,binding signal,[2],8.06
same,binding signal,[3],8.01
same,binding signal,[4],8.1
GCGGACGC [8-mer GCGGACGC],binding signal,[1],7.96
same,binding signal,[2],8.06
same,binding signal,[3],7.9
same,binding signal,[4],8.07
